# Measured values published in the supplement of paper PMC11348887.
# Where a name gives a salt, the structure may show the parent alone. The list shows a part of the results. Cut-off read from the data, not from the text of the source: active = -2 or less and inactive = the rest. Many values rest on one well or one pass, so single values are uncertain.
# Tested on: hPSC-derived cortical neurons (WA09)
# Assay: nuclei number (viability) z-score; higher = more surviving cells
# Conditions: 5 µM; treatment: days 7-14 after plating, readout day 21
# 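Note: nuclei counted from DAPI counterstain by automated high-content image analysis, four fields per well at ×20 in 384-well plates, with sequential b-score then z-score normalization.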
row,Compound,nuclei number (z-score)
1,CCN1CCCC1CNC(=O)c1cc(S(=O)(=O)CC)c(N)cc1OC (stereo unspecified) [Amisulpride],inactive: -0.255
2,CC(C)(CO)C(O)C(=O)NCCCO (racemic) [DL-Panthenol],inactive: 0.567
3,Nc1nc(N)nc(-c2cc(Cl)ccc2Cl)n1 [Irsogladine],inactive: 1.56
4,CNC(=O)CN1CCC(Oc2cc3c(Nc4cccc(Cl)c4F)ncnc3cc2OC)CC1 [AZD8931 (Sapitinib)],inactive: 2.61
5,O=C(Nc1cc(Cl)cc2c1[nH]c1cnccc12)c1cccnc1,inactive: 3.38
6,CCc1c(C(=O)NCCc2ccc(N3CCCCC3)cc2)[nH]c2ccc(Cl)cc12,inactive: -0.285
7,CN1CCN(c2ccc(C(=O)Nc3n[nH]c4ccc(Cc5cc(F)cc(F)c5)cc34)c(NC3CCOCC3)c2)CC1 [Entrectinib (RXDX-101)],active: -5.3
8,Nc1ncnc2c1c(-c1cccc(OCc3ccccc3)c1)cn2C1CC(CN2CCCC2)C1 (stereo unspecified),active: -3.4
9,O=C(Nc1cccc(Cl)c1)Nc1ncc(CCNc2ncnc3ccsc23)s1 [SNS-314 Mesylate],inactive: 1.55
10,CNC(=O)c1ccc(N2C(=S)N(c3cnc(C#N)c(C(F)(F)F)c3)C(=O)C23CCC3)cc1F,inactive: 1.13
11,O=C(c1ccc(OCCN2CCCCC2)cc1)c1c(-c2ccc(O)cc2)sc2cc(O)ccc12 [Raloxifene HCl],inactive: -0.108
12,CO[C@H]1CC[C@H](N2C(=O)CNc3ncc(-c4ccc(C(C)(C)O)nc4)nc32)CC1,active: -6.12
13,CCOc1cc(N2CCC(O)CC2)ccc1Nc1ncc2c(n1)N(C)c1ccccc1C(=O)N2C,inactive: -0.864
14,Fc1ccc2[nH]ccc2c1-c1nc(N2CCOCC2)c2sc(CN3CCN(CC4CC4)CC3)cc2n1,inactive: -0.554
15,CC(CN1c2ccccc2Sc2ccccc21)N(C)C (stereo unspecified) [Promethazine HCl],inactive: -0.0641
16,CNC(=O)c1ccccc1Sc1ccc2c(/C=C/c3ccccn3)n[nH]c2c1 [Axitinib],inactive: 0.215
17,Cc1ccc(NC(=O)Nc2cc(C(F)(F)F)ccc2F)cc1Nc1ccc2c(c1)NC(=O)/C2=C\c1ccc[nH]1,active: -3.71
18,CCOC(=O)C1=C(C)NC(C)=C(C(=O)OC)C1c1cccc([N+](=O)[O-])c1 (stereo unspecified) [Nitrendipine],inactive: 4.47
19,CCn1cc(C(=O)O)c(=O)c2cc(F)c(N3CCNCC3)cc21 [Norfloxacin],inactive: -0.561
20,COC1(c2sc3c(N4CCOCC4)nc(-c4cnc(N)nc4)nc3c2C)COC1,inactive: -0.776
21,c1ccc2c(-c3cnn4cc(-c5ccc(N6CCNCC6)cc5)cnc34)ccnc2c1,active: -5.7
